In PubChem BioAssay AID504332 (National Center for Advancing Translational Sciences (NCATS), 2011):
Hit rate of the full screen: of about 350,000 compounds, about 31,000 (8.9%) were called active. Inconclusive results, whose numbers are uncertain, are shown with a selection of clear calls. Calls follow the shape of the dose curve; as a rule, active = well fitted inhibition curve with a large enough effect; inconclusive = small, poorly fitted or top-dose-only effect; inactive = no such curve, though single readings can be large or run the other way. Potencies of inconclusive entries are doubtful fits and often do not repeat.

What follows are molecules tested against Histone-lysine N-methyltransferase EHMT2 (Homo sapiens) (UniProt Q96KQ7) (assay: qHTS Assay for Inhibitors of Histone Lysine Methyltransferase G9a). Conditions: G9a H3K9 monomethylation, AlphaScreen, 2 h; activity, negative = inhibition: at 59 µM (top of the series) unless noted.
Chain of UniProt Q96KQ7 (Q96KQ7 whole entry, looked up): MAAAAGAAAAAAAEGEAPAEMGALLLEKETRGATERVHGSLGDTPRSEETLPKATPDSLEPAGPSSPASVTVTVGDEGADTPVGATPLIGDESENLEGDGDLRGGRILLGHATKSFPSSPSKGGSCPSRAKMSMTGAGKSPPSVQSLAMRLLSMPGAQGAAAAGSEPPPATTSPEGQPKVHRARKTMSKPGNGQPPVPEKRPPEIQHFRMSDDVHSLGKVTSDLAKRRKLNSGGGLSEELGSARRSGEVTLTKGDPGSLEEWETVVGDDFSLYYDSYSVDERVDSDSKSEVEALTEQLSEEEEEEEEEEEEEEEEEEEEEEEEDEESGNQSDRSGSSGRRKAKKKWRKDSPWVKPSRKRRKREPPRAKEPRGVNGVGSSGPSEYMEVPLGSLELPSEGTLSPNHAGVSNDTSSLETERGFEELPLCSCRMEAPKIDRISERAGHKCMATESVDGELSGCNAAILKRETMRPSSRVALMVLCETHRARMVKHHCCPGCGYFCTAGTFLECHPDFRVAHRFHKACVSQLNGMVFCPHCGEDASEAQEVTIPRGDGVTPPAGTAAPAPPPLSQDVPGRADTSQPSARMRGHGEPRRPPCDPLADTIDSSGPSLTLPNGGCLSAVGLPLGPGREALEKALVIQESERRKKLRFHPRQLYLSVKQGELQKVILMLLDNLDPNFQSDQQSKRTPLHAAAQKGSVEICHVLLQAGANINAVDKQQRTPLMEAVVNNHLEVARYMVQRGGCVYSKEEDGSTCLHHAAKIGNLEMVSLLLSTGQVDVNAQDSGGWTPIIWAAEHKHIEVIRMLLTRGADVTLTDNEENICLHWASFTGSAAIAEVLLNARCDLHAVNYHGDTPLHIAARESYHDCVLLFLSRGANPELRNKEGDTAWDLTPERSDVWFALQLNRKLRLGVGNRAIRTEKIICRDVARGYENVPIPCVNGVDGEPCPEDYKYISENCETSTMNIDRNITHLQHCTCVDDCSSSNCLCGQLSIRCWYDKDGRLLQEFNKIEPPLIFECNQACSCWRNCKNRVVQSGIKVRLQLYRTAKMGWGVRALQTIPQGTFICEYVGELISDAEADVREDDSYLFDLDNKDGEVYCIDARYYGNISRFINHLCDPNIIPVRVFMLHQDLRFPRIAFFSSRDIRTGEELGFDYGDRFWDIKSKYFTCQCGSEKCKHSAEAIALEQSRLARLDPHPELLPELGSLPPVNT
Outline: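 Enzyme 20 nM + cpd, 15 min RT; add b-H3K9 pep 500 nM / SAM 20 uM; 2 h RT; anti-H3K9me1 Ab 0.5 ug/mL + SA donor / anti-rabbit acceptor beads 20 ug/mL each, 10 min; AlphaScreen read.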
% is scaled to controls: 0 for no effect and ±100 for the full control effect; potency is read from the fitted curve at half-maximal effect; tags tell the direction and shape of the fitted curve.
Also: nearly all actives have a fitted effect of over 75% in size.

Question: With Cc1ccccc1NC(=S)NC(=O)C1CCCCC1 as the molecule, how does the Potency read?
Answer: inconclusive: 56.2 µM [inhibitor, single point]

Question: How did the Potency turn out when CCC1CCCCN1C(=O)CCc1nnc(Cc2c[nH]c3ccccc23)o1 (stereo not given) was run?
Answer: inconclusive: 70.8 µM [inhibitor, single point]

Question: With COc1ccc(CN(CCC(c2ccccc2)c2ccco2)C(=O)c2ccco2)cc1 (stereo not given) as the molecule, how does the Potency read?
Answer: inconclusive: 20 µM [inhibitor, single point]

Question: For CC1=C(C(=O)Nc2ccccc2)C(c2ccncc2)C(C#N)=C(SCC(=O)NC2CC2)N1 (stereo not given), which Potency is on record?
Answer: active: 28.2 µM

Question: For CCNC(=S)Nc1ccc(Cl)c([N+](=O)[O-])c1, which Potency is on record?
Answer: inconclusive: 89.1 µM [inhibitor, single point]

Question: Which Potency does the source give for CCC1CCCN1Cn1cnc2c([nH]c3ccc(C)cc32)c1=O (stereo not given) here?
Answer: inconclusive: 79.4 µM [inhibitor, partial curve, poor fit]

Question: For CC(C)c1ccc(C(=O)NC2=NCCS2)cc1, which Potency is on record?
Answer: inconclusive: 1.78 µM [inhibitor, full curve]

Question: With Cc1ccc(Sc2cc(NCCCO)c([N+](=O)[O-])c3nonc23)cc1 as the molecule, how does the Potency read?
Answer: active: 50.1 µM

Question: Which Potency does the source give for Cc1cccc(NCCC(=O)c2ccc([N+](=O)[O-])cc2)c1C here?
Answer: inconclusive: 2.24 µM [inhibitor, full curve, poor fit]

Question: COc1ccc(NC(C)=O)cc1NC(C)C(=O)Nc1ccc(S(=O)(=O)N2CCCCC2)cc1 (stereo not given) was tested. Which Potency did it give?
Answer: inconclusive: 39.8 µM [inhibitor, single point]

Question: With CCOc1cc(C(c2c(C)[nH][nH]c2=O)c2c(C)[nH][nH]c2=O)ccc1OS(=O)(=O)c1ccccc1 as the molecule, how does the Potency read?
Answer: inconclusive: 1.78 µM [inhibitor, partial curve, poor fit]

Question: Which Potency does the source give for CCN1CCN(C(=O)c2cc(-c3ccco3)nc3ccccc23)CC1 here?
Answer: inconclusive: 35.5 µM [inhibitor, single point]

Question: How did the Potency turn out when COc1ccc(/C(N)=N/OC(=O)Cc2cccs2)cc1OC was run?
Answer: inactive

Question: With O=C(Nc1ccccc1)c1cccc(S(=O)(=O)NCc2ccco2)c1 as the molecule, how does the Potency read?
Answer: inconclusive: 14.1 µM [inhibitor, partial curve]

Question: How did the Potency turn out when Cc1nn(CC(O)CN2c3ccccc3Sc3ccccc32)c(C)c1Br (stereo not given) was run?
Answer: inconclusive: 25.1 µM [inhibitor, single point]

Question: With COc1ccc(C(=O)CSC#N)cc1OC as the molecule, how does the activity, negative = inhibition read?
Answer: inconclusive: -65.3% [inhibitor] [at 102 µM]

Question: Which Potency does the source give for O=C(c1nc2ccccn2c1CN1CCCC(c2nc3ccccc3o2)C1)N1CCCC1 (stereo not given) here?
Answer: inactive

Question: COc1cccc(C2=NO[C@@H]3C(=O)N(Cc4ccccc4)C(=O)[C@H]23)c1OC was tested. Which Potency did it give?
Answer: inconclusive: 79.4 µM [inhibitor, partial curve, poor fit]

Question: With COC(=O)c1ccc2nc(NC(=O)CSCC(=O)OCC(=O)c3ccccc3)sc2c1 as the molecule, how does the Potency read?
Answer: active: 7.94 µM

Question: How did the Potency turn out when Cc1cc(-n2c(C)cc(C(=O)CSc3nnnn3-c3ccc(Cl)cc3)c2C)no1 was run?
Answer: inconclusive: 31.6 µM [inhibitor, single point]

Question: For CC1CCN(C(=O)CSc2nnc(CSc3ncccn3)n2C)CC1, which Potency is on record?
Answer: inconclusive: 100 µM [inhibitor, single point]

Question: How did the Potency turn out when COc1ccc2nc(N(Cc3cccnc3)C(=O)c3ccc(Cl)cc3)sc2c1 was run?
Answer: inactive

Question: How did the Potency turn out when CCN1CCN(CC(O)COC(C)C)CC1 (stereo not given) was run?
Answer: active: 50.1 µM

Question: With O=C(NCCO)/C(=C\c1ccco1)NC(=O)c1cccs1 as the molecule, how does the Potency read?
Answer: inconclusive: 28.2 µM [inhibitor, partial curve, poor fit]

Question: CCCCN(CC)CCCNC(=O)c1ccc2c(c1)N(CC)C(=O)c1ccccc1S2(=O)=O was tested. Which Potency did it give?
Answer: inconclusive: 79.4 µM [inhibitor, single point]

Question: For CS(=O)(=O)N1CCN(C(=O)CCc2ccccc2)CC1, which Potency is on record?
Answer: inconclusive: 89.1 µM [inhibitor, single point]

Question: Which Potency does the source give for COc1ccc(-n2c(C)cc(C(=O)COC(=O)c3ccc(O)cc3O)c2C)cc1 here?
Answer: inconclusive: 3.16 µM [inhibitor, single point]

Question: Which Potency does the source give for CCOC(=O)C(=O)NNc1ccccc1C here?
Answer: inactive

Question: COc1ccc(N2CCN(C(=O)c3cn(C)c4ccc(S(=O)(=O)N5CCOCC5)cc4c3=O)CC2)cc1 was tested. Which Potency did it give?
Answer: inconclusive: 17.8 µM [inhibitor, partial curve, poor fit]

Question: With CCOc1ccc(/C=C2\SC(=S)N(CCCC(=O)NCCCN3CCOCC3)C2=O)cc1 as the molecule, how does the Potency read?
Answer: inconclusive: 50.1 µM [inhibitor, partial curve]

Question: How did the Potency turn out when CCOC(=O)c1ccc(NC(=S)N(CCN2CCCCCC2)Cc2cccs2)cc1 was run?
Answer: inconclusive: 15.8 µM [inhibitor, full curve]

Question: For COC(=O)c1cccc(NC(=O)c2nn(C)c(=O)c3ccccc23)c1, which Potency is on record?
Answer: inactive

Question: CCN(c1ccccc1)S(=O)(=O)c1cccc(C(=O)O)c1 was tested. Which Potency did it give?
Answer: active: 79.4 µM

Question: With N[C@H](CSC(c1ccccc1)(c1ccccc1)c1ccccc1)C(=O)O as the molecule, how does the Potency read?
Answer: inactive

Question: For CCC(C(=O)O)C1CCC(C)C(C(C)C(O)C(C)C(=O)C(CC)C2OC3(C=CC(O)[C@@]4(CC[C@](C)(C5CC[C@@](O)(CC)C(C)O5)O4)O3)C(C)CC2C)O1 (stereo not given in full), which activity, negative = inhibition is on record?
Answer: inactive: 0.71% [at 2.33 µM]

Question: How did the Potency turn out when COc1ccc(OC)c(NC(=O)N2CCC3(CC2)Oc2ccccc2C(=O)N3Cc2ccccc2F)c1 was run?
Answer: inconclusive: 31.6 µM [inhibitor, partial curve, poor fit]

Question: With COc1ccccc1C(=O)N1CCC(N2CCN(c3ccccc3OC)CC2)CC1 as the molecule, how does the Potency read?
Answer: active: 7.94 µM

Question: How did the Potency turn out when O=C(O)CC1(CC(=O)Nc2ccc(F)cc2F)CCCCC1 was run?
Answer: inconclusive: 89.1 µM [inhibitor, single point]

Question: For O=C(Nc1cccc2ncccc12)c1ccccc1F, which Potency is on record?
Answer: inactive

Question: For CCOC(=O)c1c(C)nc2cc(C)ccn12, which Potency is on record?
Answer: inactive

Question: With COC(=O)Nc1ccc(S(=O)(=O)N2CCN(C)CC2)cc1 as the molecule, how does the Potency read?
Answer: inconclusive: 79.4 µM [inhibitor, single point]

Question: With N#Cc1c(Nc2cccc(F)c2)sc2c(O)cc(=O)[nH]c12 as the molecule, how does the Potency read?
Answer: inconclusive: 0.631 µM [inhibitor, full curve, poor fit]

Question: With Cc1ccc(S(=O)(=O)/C=C2\NC(=O)CS2)cc1 as the molecule, how does the activity, negative = inhibition read?
Answer: inconclusive: -81.7% [inhibitor]

Question: Which Potency does the source give for Cc1ccc(-c2nc(-c3cccs3)c(-c3cccs3)[nH]2)cc1 here?
Answer: inactive

Question: Which Potency does the source give for COc1cccc(CNS(=O)(=O)c2c(C(=O)N3CCCC3)c(C)n(C)c2C)c1 here?
Answer: inconclusive: 0.562 µM [inhibitor, full curve, poor fit]

Question: For COCC(=O)N1CCC2(CC1)CN(C(=O)Nc1ccccc1)C2, which activity, negative = inhibition is on record?
Answer: inactive: -0.793% [at 12.7 µM]

Question: For O=C(O)CCCC(=O)NS(=O)(=O)c1ccc(Cl)cc1, which Potency is on record?
Answer: inconclusive: 11.2 µM [inhibitor, partial curve, poor fit]

Question: Which Potency does the source give for CS(=O)(=O)N(CC(=O)NCc1ccccn1)Cc1ccc(Cl)cc1 here?
Answer: inconclusive: 31.6 µM [inhibitor, single point]

Question: Which Potency does the source give for C/C(=N\Nc1cccc2cccnc12)c1ccc[nH]1 here?
Answer: inactive

Question: How did the Potency turn out when CNC(=O)C1CCC(Cn2c(=O)c3sccc3n(CC(=O)Nc3ccccc3)c2=O)CC1 (stereo not given) was run?
Answer: inactive

Question: How did the Potency turn out when COc1ccc(NC(=O)CC2C(=O)N(Cc3ccco3)C(=S)N2C(C)C)cc1 (stereo not given) was run?
Answer: inconclusive: 79.4 µM [inhibitor, single point]

Question: For CCCCOC(=O)c1ccc(NC(=S)NC(=O)c2c(Cl)cnn2C)cc1, which Potency is on record?
Answer: inactive

Question: With COc1ccc(C)cc1-n1c(SCC(=O)NCc2ccco2)nc2c([nH]c3ccccc32)c1=O as the molecule, how does the Potency read?
Answer: inactive

Question: How did the Potency turn out when NC(=O)CSCc1nc2ccccc2s1 was run?
Answer: inconclusive: 28.2 µM [inhibitor, single point]

Question: With CC(C)c1nnc(NC(=O)CS(=O)(=O)c2ccccc2)s1 as the molecule, how does the Potency read?
Answer: inactive

Question: How did the Potency turn out when NCc1cc2c3c(c1)CCCN3CCC2 was run?
Answer: active: 15.8 µM

Question: For O=C(O)CCC(=O)NNc1ccccc1[N+](=O)[O-], which Potency is on record?
Answer: inconclusive: 89.1 µM [inhibitor, partial curve, poor fit]

Question: For CC(Nc1[nH]c(=O)n(C)c(=O)c1N=O)c1ccccc1 (stereo not given), which Potency is on record?
Answer: inconclusive: 39.8 µM [inhibitor, single point]

Question: With Cc1ccc(N/C=C(\C2OC(=O)c3ccccc32)[N+](=O)[O-])c(C)c1 (stereo not given) as the molecule, how does the Potency read?
Answer: inconclusive: 39.8 µM [inhibitor, partial curve, poor fit]

Question: COc1cc(OC)cc(C(=O)NC(=S)Nc2cccnc2)c1 was tested. Which activity, negative = inhibition did it give?
Answer: inconclusive: -59.7% [inhibitor]

Question: CCn1c(C(C)NC(=O)c2ccc(Cl)cc2)n[nH]c1=S (stereo not given) was tested. Which Potency did it give?
Answer: inconclusive: 28.2 µM [inhibitor, single point]

Question: For CCOC(=O)NC(NC(=S)Nc1ccccc1[N+](=O)[O-])C(Cl)(Cl)Cl (stereo not given), which Potency is on record?
Answer: inconclusive: 89.1 µM [inhibitor, single point]

Question: With CCn1c2ccccc2c2cc(CNCc3ccc(OC)cc3OC)ccc21 as the molecule, how does the Potency read?
Answer: active: 39.8 µM

Question: Which Potency does the source give for CCOC(=O)c1sc(NC(=O)c2cc(-c3ccc(C)cc3)nc3ccccc23)c(C#N)c1C here?
Answer: active: 5.62 µM

Question: How did the Potency turn out when CCCC(=O)N1CCN(c2ccc(C(=O)c3ccc(OC)c(Br)c3)cc2F)CC1 was run?
Answer: inconclusive: 22.4 µM [inhibitor, single point]

Question: Which Potency does the source give for Cc1ccc(-c2c(C(=O)O)c(C(=O)O)c3n2CCC3)cc1 here?
Answer: inconclusive: 79.4 µM [inhibitor, partial curve, poor fit]

Question: For Cc1ccc(CCNC(=O)CCCn2c(=O)c3cccn3c3ccc(F)cc32)cc1, which Potency is on record?
Answer: inactive

Question: CSc1cccc(N2CC(C(=O)Nc3ccccc3N3CCCC3)CC2=O)c1 (stereo not given) was tested. Which Potency did it give?
Answer: inconclusive: 39.8 µM [inhibitor, partial curve, poor fit]

Question: How did the activity, negative = inhibition turn out when Cc1cc(NC(=O)COC(=O)CNC(=O)c2cccs2)c([N+](=O)[O-])cc1C was run?
Answer: inactive: 1.77% [at 0.501 µM]

Question: For CCOC(=O)C1(Cc2cccc(OC)c2)CCN(C/C=C/c2ccccc2)CC1, which Potency is on record?
Answer: inconclusive: 28.2 µM [inhibitor, partial curve, poor fit]
